From the supplement of paper PMC4996465

Columns and labels:
[1] = test system: KB3-1; assay: viability (% of DMSO control); higher = more viable cells
Method: (§1)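 Eleven-dose screen of the NCATS MIPE 3 library on cells without co-treatment; CellTiter-Glo after 48 h, as % of DMSO wells.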

[2] = test system: Nalm-6; assay: as above
Method: as §1

[3] = test system: KB3-1; assay: log AC50 of viability decrease (48 h) (log10 M); higher = less potent
Method: (§2)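 Eleven-dose screen of the NCATS MIPE 3 library on cells without co-treatment; CellTiter-Glo after 48 h. AC50 from the curve fit; only inhibitory curves of the better fit classes are listed.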

[4] = test system: Nalm-6; assay: as above
Method: as §2

| SMILES | viability ([1]; 0.00078 µM) [%] | viability ([1]; 0.00234 µM) [%] | viability ([1]; 0.00702 µM) [%] | viability ([1]; 0.0211 µM) [%] | viability ([1]; 0.0632 µM) [%] | viability ([1]; 0.19 µM) [%] | viability ([1]; 0.569 µM) [%] | viability ([1]; 1.71 µM) [%] | viability ([1]; 5.12 µM) [%] | viability ([1]; 15.4 µM) [%] | viability ([1]; 46.1 µM) [%] | viability ([2]; run: 1, 0.00078 µM) [%] | viability ([2]; run: 1, 0.00234 µM) [%] | viability ([2]; run: 1, 0.00702 µM) [%] | viability ([2]; run: 1, 0.0211 µM) [%] | viability ([2]; run: 1, 0.0632 µM) [%] | viability ([2]; run: 1, 0.19 µM) [%] | viability ([2]; run: 1, 0.569 µM) [%] | viability ([2]; run: 1, 1.71 µM) [%] | viability ([2]; run: 1, 5.12 µM) [%] | viability ([2]; run: 1, 15.4 µM) [%] | viability ([2]; run: 1, 46.1 µM) [%] | viability ([2]; run: 2, 0.00078 µM) [%] | viability ([2]; run: 2, 0.00234 µM) [%] | viability ([2]; run: 2, 0.00702 µM) [%] | viability ([2]; run: 2, 0.0211 µM) [%] | viability ([2]; run: 2, 0.0632 µM) [%] | viability ([2]; run: 2, 0.19 µM) [%] | viability ([2]; run: 2, 0.569 µM) [%] | viability ([2]; run: 2, 1.71 µM) [%] | viability ([2]; run: 2, 5.12 µM) [%] | viability ([2]; run: 2, 15.4 µM) [%] | viability ([2]; run: 2, 46.1 µM) [%] | log AC50 of viability decrease [3] | log AC50 of viability decrease ([4]; run: 1) | log AC50 of viability decrease ([4]; run: 2) |
| --- | --- | --- | --- | --- | --- | --- | --- | --- | --- | --- | --- | --- | --- | --- | --- | --- | --- | --- | --- | --- | --- | --- | --- | --- | --- | --- | --- | --- | --- | --- | --- | --- | --- | --- | --- | --- |
| CC(=O)Nc1ccc([C@H](C)C(=O)Nc2ncc(C(C)C)s2)cc1 | 94.1 | 95.2 | 94.2 | 98.5 | 96.4 | 75.4 | 65 | 28.8 | 20.3 | 18.8 | 12.2 | 76.9 | 85.6 | 89.8 | 93.2 | 98.7 | 75.3 | 49.4 | 12.3 | 12.6 | 14.3 | 7.86 | 96.9 | 98.3 | 103 | 99.5 | 99.3 | 68.2 | 35.1 | 11.1 | 13.9 | 15.1 | 8.48 | -6.18 | -6.28 | -6.53 |
| COC1=CC(c2cc3ccccc3[nH]2)=N/C1=C/c1[nH]c(C)cc1C [Obatoclax] | 98.3 | 94.5 | 107 | 100 | 93.5 | 92.8 | 65.1 | 64.6 | 57.1 | 41.3 | 9.52 | 119 | 107 | 117 | 109 | 93 | 65.1 | 13.4 | 8.48 | 8.73 | 4.57 | 1.59 | 97 | 101 | 108 | 99.6 | 88.5 | 54 | 10.7 | 9.28 | 6.64 | 4.05 | 1.14 | -5.18 | -6.73 | -6.73 |
| C[C@]1(CO)CN(c2cc(C(=O)Nc3ccc4c(c3)-c3c(c(C(N)=O)nn3-c3ccc(F)cc3)CC4)c(Cl)cn2)C[C@@]1(C)CO [PF-184] | 98.5 | 97.1 | 96 | 98.3 | 97.1 | 96.7 | 90.7 | 94.6 | 81.9 | 72.3 | 54.9 | 87.8 | 91 | 100 | 97 | 97.6 | 101 | 99.3 | 86.3 | 13.3 | 5.02 | 8.4 | 103 | 106 | 108 | 97.5 | 98.3 | 113 | 101 | 100 | 14.4 | 2.91 | 5.25 | -4.78 | -5.58 | -5.48 |
| Nc1nc(Nc2ccc([S+](N)(=O)[O-])cc2)nn1C(=O)c1c(F)cccc1F | 97.8 | 95.3 | 102 | 103 | 102 | 92.3 | 83.8 | 72.2 | 47.2 | 30.7 | 19.1 | 97.1 | 101 | 113 | 113 | 107 | 97.9 | 85.5 | 38.3 | 9.78 | 10.7 | 11.7 | 109 | 106 | 103 | 111 | 108 | 91.2 | 76.1 | 32 | 6.31 | 7.16 | 15.2 | -5.43 | -5.98 | -6.08 |
| Cc1c(C(=O)Nc2ccc(N3C[C@@H](C)O[C@@H](C)C3)nc2)cccc1-c1ccc(OC(F)(F)F)cc1 [NVP-LDE-225] | 100 | 96.7 | 101 | 98.1 | 93.7 | 91.3 | 87.5 | 81.9 | 85.8 | 81.5 | 54.3 | 89.3 | 89.1 | 102 | 95.9 | 97.3 | 101 | 99 | 82.1 | 68.2 | 66.5 | 8.41 | 100 | 110 | 100 | 99.6 | 94.1 | 93 | 90.4 | 87.4 | 85.7 | 69.6 | 15 | -4.63 | -4.73 | -4.68 |

Viability of KB3-1 and Nalm-6 cells after 48 h of drug alone (CellTiter-Glo), 11 doses over about 4.5 log units. % of DMSO wells, lower = more cell loss; AC50 from the fitted curve, lower = more potent. No active / inactive call. Nalm-6 was screened in two runs. AC50 is listed only for well-fitted inhibitory curves. KB3-1 is a HeLa-derived carcinoma line, Nalm-6 a B-cell precursor leukaemia line.
